Measurements from a collection of fitness landscapes (doi:10.1038/s41467-024-54723-y).
Whole data set: some 18,000 sequences, median “TetR repression strength (sort-seq, GFP reporter)” near 0.23, cut for the highest 2% near 0.68. The list shows a part of the results.

What follows are sequences tested against TetR (class B, Tn10) (UniProt P04483) (assay: TetR repression strength (sort-seq, GFP reporter) (relative to tetO2 = 1); higher = stronger repression). Conditions: E. coli.
Sequence of UniProt P04483 (P04483 whole entry): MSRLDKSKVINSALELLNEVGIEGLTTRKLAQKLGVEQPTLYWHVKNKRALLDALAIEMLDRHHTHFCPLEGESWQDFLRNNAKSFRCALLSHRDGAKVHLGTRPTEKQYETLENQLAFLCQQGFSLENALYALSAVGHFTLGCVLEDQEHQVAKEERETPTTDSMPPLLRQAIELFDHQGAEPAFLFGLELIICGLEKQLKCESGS
Procedure, shortened: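 Escherichia coli SIG10-MAX cells carried a low-copy plasmid library in which eight operator positions were randomized between a constitutive promoter and sfGFP, and TetR was expressed constitutively. After 5 h of growth at 37 °C in LB with 50 µg/mL chloramphenicol, 10^6 cells were FACS-sorted into 13 fluorescence bins, and each bin was Illumina-sequenced. Repression strength was the top bin index plus one minus the read-weighted mean bin, divided by the value for the unaltered operator. Across three independent transformations, only library members with ≥30 reads in every replicate and a CV ≤0.5 were averaged.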
With TCCCCTGTAGTTTAGGAGA the TetR repression strength was 0.13. TCCCGCTCAGTGTACGAGA was tested, and the TetR repression strength was 0.215. TCCCAGGTAGTTCCGGAGA showed a TetR repression strength of 0.18. TCCCTGCCAGTGATGGAGA showed a TetR repression strength of 0.257. For TCCCGGGAAGTGATAGAGA, the TetR repression strength was 0.537. TCCCGTGTAGTCAGGGAGA showed a TetR repression strength of 0.0908. In the case of TCCCGCTTAGTTAGTGAGA, the TetR repression strength was 0.383. For TCCCCTCAAGTTGACGAGA, the TetR repression strength was 0.261. With TCCCGTCTAGTGACAGAGA the TetR repression strength was 0.369. In the case of TCCCAGACAGTGAGTGAGA, the TetR repression strength was 0.0202. TCCCACATAGTACTTGAGA was tested, and the TetR repression strength was 0.257. In the case of TCCCGTTAAGTGCAAGAGA, the TetR repression strength was 0.418. TCCCGAAAAGTCCGGGAGA showed a TetR repression strength of 0.185. TCCCCCAGAGTCGGCGAGA was tested, and the TetR repression strength was 0.274. TCCCTAACAGTTGCCGAGA showed a TetR repression strength of 0.353. For TCCCGCGCAGTGTTAGAGA, the TetR repression strength was 0.197. TCCCTCATAGTGATTGAGA gave a TetR repression strength of 0.325. TCCCACAAAGTTGGCGAGA showed a TetR repression strength of 0.312. In the case of TCCCGTCAAGTTTGGGAGA, the TetR repression strength was 0.223. TCCCAAGAAGTGAAGGAGA showed a TetR repression strength of 0.262. For TCCCTCTGAGTAAGAGAGA, the TetR repression strength was 0.0346. In the case of TCCCCGGGAGTGATGGAGA, the TetR repression strength was 0.184. In the case of TCCCCTATAGTGTGTGAGA, the TetR repression strength was 0.198. For TCCCAGGTAGTGGGTGAGA, the TetR repression strength was 0.269. Sequence TCCCGAGTAGTTCACGAGA has a TetR repression strength of 0.415. TCCCTACGAGTGGTTGAGA gave a TetR repression strength of 0.304. TCCCGAAGAGTGTAGGAGA gave a TetR repression strength of 0.154. For TCCCGAGAAGTCGCGGAGA, the TetR repression strength was 0.0355. With TCCCTGTAAGTGTCGGAGA the TetR repression strength was 0.049. With TCCCAGCCAGTGGGTGAGA the TetR repression strength was 0.0351. TCCCGCTAAGTACAAGAGA gave a TetR repression strength of 0.228. Sequence TCCCTGAGAGTTAGCGAGA has a TetR repression strength of 0.0305. With TCCCGCATAGTGCGGGAGA the TetR repression strength was 0.326. In the case of TCCCATATAGTGGGCGAGA, the TetR repression strength was 0.306. TCCCCAACAGTGCCCGAGA was tested, and the TetR repression strength was 0.441. In the case of TCCCAGTGAGTTACAGAGA, the TetR repression strength was 0.146. TCCCGACCAGTATATGAGA was tested, and the TetR repression strength was 0.1. In the case of TCCCTTGTAGTTAGAGAGA, the TetR repression strength was 0.154. For TCCCGGTAAGTTAGCGAGA, the TetR repression strength was 0.0236. TCCCATCAAGTGTTGGAGA gave a TetR repression strength of 0.202. For TCCCGTCAAGTCGAGGAGA, the TetR repression strength was 0.131. In the case of TCCCAAGCAGTGTTAGAGA, the TetR repression strength was 0.217. TCCCGAGGAGTAGGGGAGA showed a TetR repression strength of 0.231. In the case of TCCCCGAGAGTAGGCGAGA, the TetR repression strength was 0.221. TCCCGAGTAGTTAGAGAGA showed a TetR repression strength of 0.0482. TCCCTAAGAGTCGTGGAGA gave a TetR repression strength of 0.141. For TCCCGTACAGTGAGGGAGA, the TetR repression strength was 0.104. Sequence TCCCAAGGAGTAGGCGAGA has a TetR repression strength of 0.124. For TCCCTAGCAGTTTCGGAGA, the TetR repression strength was 0.238. In the case of TCCCAGAGAGTAGCGGAGA, the TetR repression strength was 0.24. TCCCTTATAGTGGCGGAGA showed a TetR repression strength of 0.22. Sequence TCCCTGGTAGTTAGAGAGA has a TetR repression strength of 0.821. TCCCCTTCAGTTTGAGAGA showed a TetR repression strength of 0.298. TCCCGACAAGTTATCGAGA gave a TetR repression strength of 0.226. With TCCCATCAAGTGGTCGAGA the TetR repression strength was 0.311. TCCCGTGTAGTCCTTGAGA was tested, and the TetR repression strength was 0.331. With TCCCAACCAGTCTGAGAGA the TetR repression strength was 0.348. Work on TCCCCTTGAGTTGACGAGA yielded a TetR repression strength of 0.302. TCCCGCTCAGTCGGAGAGA showed a TetR repression strength of 0.242. Sequence TCCCGTTAAGTAGAGGAGA has a TetR repression strength of 0.232. TCCCTGCAAGTAGGGGAGA was tested, and the TetR repression strength was 0.0817. For TCCCCCTCAGTAACCGAGA, the TetR repression strength was 0.428. Sequence TCCCCGACAGTAGTTGAGA has a TetR repression strength of 0.411. For TCCCGCGCAGTGACGGAGA, the TetR repression strength was 0. Sequence TCCCAAGCAGTACTAGAGA has a TetR repression strength of 0.36. TCCCAATAAGTATGGGAGA was tested, and the TetR repression strength was 0.415. Sequence TCCCCATAAGTGCGTGAGA has a TetR repression strength of 0.0842. With TCCCGTAGAGTATACGAGA the TetR repression strength was 0.126. TCCCAGTCAGTTGCAGAGA showed a TetR repression strength of 0.343. TCCCAAGAAGTGCTCGAGA showed a TetR repression strength of 0.196. Sequence TCCCATCTAGTCTATGAGA has a TetR repression strength of 0.122. TCCCTCAGAGTCGGTGAGA was tested, and the TetR repression strength was 0.547. For TCCCTGCTAGTAGGAGAGA, the TetR repression strength was 0.415. TCCCTTTAAGTGCACGAGA was tested, and the TetR repression strength was 0.207. In the case of TCCCGGTTAGTTTTAGAGA, the TetR repression strength was 0.0155. In the case of TCCCGCCAAGTGTCGGAGA, the TetR repression strength was 0.00964. TCCCGGCCAGTCAAGGAGA was tested, and the TetR repression strength was 0.328. Sequence TCCCCATCAGTTCCGGAGA has a TetR repression strength of 0.207. Sequence TCCCAGGTAGTTTGCGAGA has a TetR repression strength of 0.192. TCCCCGTGAGTGCGGGAGA was tested, and the TetR repression strength was 0.207. Work on TCCCTGTAAGTGTGTGAGA yielded a TetR repression strength of 0.214. For TCCCCTTCAGTGTATGAGA, the TetR repression strength was 0.218. Sequence TCCCTGAGAGTATCGGAGA has a TetR repression strength of 0.0942. TCCCTTGTAGTTCGGGAGA gave a TetR repression strength of 0.19. TCCCTAACAGTAATAGAGA gave a TetR repression strength of 0.569. For TCCCGGTGAGTAACAGAGA, the TetR repression strength was 0.471. Sequence TCCCGATGAGTTATTGAGA has a TetR repression strength of 0.214. In the case of TCCCGGTCAGTGGGTGAGA, the TetR repression strength was 0.202. With TCCCCGACAGTCACGGAGA the TetR repression strength was 0.245. For TCCCGGCGAGTGCTCGAGA, the TetR repression strength was 0.177. Sequence TCCCTAACAGTAGGGGAGA has a TetR repression strength of 0.102. Work on TCCCTATTAGTGCATGAGA yielded a TetR repression strength of 0.194. In the case of TCCCCTCTAGTGCATGAGA, the TetR repression strength was 0.311. TCCCGAGGAGTAAGCGAGA was tested, and the TetR repression strength was 0.155. TCCCGGAGAGTTGGCGAGA was tested, and the TetR repression strength was 0.0488. Work on TCCCGCTTAGTCAAAGAGA yielded a TetR repression strength of 0.317. For TCCCTCACAGTGGGGGAGA, the TetR repression strength was 0.189. TCCCATGGAGTGTACGAGA gave a TetR repression strength of 0.202. TCCCCGGGAGTGGTCGAGA was tested, and the TetR repression strength was 0.348. TCCCAGGAAGTGCTGGAGA showed a TetR repression strength of 0.244. With TCCCGCTTAGTGAGGGAGA the TetR repression strength was 0.419. TCCCTCTTAGTATGCGAGA gave a TetR repression strength of 0.165.
